The results in this text go back to the supplement of paper PMC11417369.

This is one part of the list.

This test concerns PF3D7_0420300 AP2 domain 1 (GST-tagged). Description: gcPBM binding intensity (ln(normalized median fluorescence intensity)); higher = stronger DNA binding. An outline of the steps:
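Binding intensity is defined as the maximum Masliner-normalised natural-log median intensity across replicate spots for either probe orientation. It was measured on an Agilent 4 × 180k array of primer-extended double-stranded 36-bp intergenic genomic probes and negative controls, to which GST-tagged P. falciparum DNA-binding domains made in E. coli were applied for 1 h in 1× PBS with 1% milk, 0.2 mg/ml BSA, 0.5% salmon testes DNA and 0.03% Triton X-100. Detection was by Alexa488 anti-GST antibody and scanning at 488 nm.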
On to “TATTTTACTTTAAAAATGGAAAAAAAAAAGAATATT [CACACA_negctrl_site1360]”, for which the “gcPBM binding intensity (ln)” value turned out to be 9.13. Next, “TTTTTTTTTTTTACATGTACATATGAATTATAATAT [XGTACX_site5016]”: 9.2.

In the case of “TTAATAAAACTAACACGTACACATATATAATATTAT [XGTACX_site3260]”, the “gcPBM binding intensity (ln)” value came to 9.57. The figure for “GAAAGAAGCATAAATGTACACACATATTTATATATT [CACACA_site8368]” is 9.5; for “ATTGTCATCATTATATGTACGTAAAAGAATATAGAT [XGTACX_site3117]” it is 9.26. The figure for “TATGTTAAAAAAAAAAAAAAGAAAAAAATAAAAGGA [CACACA_negctrl_site119]” is 9.44. Next, “AAACAAATAGACACTTGTACGTAAGTAAATAATTAA [XGTACX_site6157]”: 9.43. With “AAAAATATATAAACACGTACACACACATATATGTAT [XGTACX_site7436]”, the “gcPBM binding intensity (ln)” value worked out at 10.1. Next, “ACATTTATATATAATTGTACCCTACATTCTCTTTTT [XGTACX_site189]”: 9.5. The figure for “GAAAAAAAAAAAAAAAGAAAATTCATATTTTTAATA [XGTACX_negctrl_site513]” is 8.74.

For the sequence “TACCAAAAAAAAAAAAAAAATTAAATAAATATGAAA [TGCATGCA_negctrl_site383]”, the “gcPBM binding intensity (ln)” value was determined as 8.9.

Regarding “GGGTTGATATATATTTGTACATATTATTATTTATTA [XGTACX_site7116]”, the “gcPBM binding intensity (ln)” value worked out at 9.72.

For the sequence “ATATATATATATTATGTGCGCATATACCATTTTAAT [GTGCAC_site9575]”, the “gcPBM binding intensity (ln)” value was 9.32.

For the sequence “TTTATTTTAACTTGTTCACACATTTGAATAAATAAA [CACACA_site5064]”, the “gcPBM binding intensity (ln)” value amounted to 9.

As for “TTTAAAAAAATGAAATAAAAAAAAAATAAAATAAAA [XGTACX_negctrl_site316]”, the “gcPBM binding intensity (ln)” value worked out at 9.09.

“ATATATATAATTTGTACACACAAATATGCATATATA [CACACA_site3432]”: the “gcPBM binding intensity (ln)” value was determined as 9.48. Next, “AAATAATTTATATATTGTACAAATATTAAATGCGAA [XGTACX_site3390]”: 9.36; “AGATATTTTTCTTAAGTACACACTAAATAGAAACTA [CACACA_site44]”: 9.18; “AGTCTGAATAAAATTACACACATATACCTATAAATA [CACACA_site6929]”: 9.55. The figure for “TTTTTTTTTTTCAGTTGTACATTGGGAAAATATATA [XGTACX_site4416]” is 9.01; for “ATAAAATAAAACAACACACACGAATGTATAAATATA [CACACA_site4643]” it is 10; for “TAATAATATAAATATGCACACAAATTATTACCCAAA [CACACA_site8805]” it is 9.5. Next, “AATAAAATACAAAAATGTACAAATATAATATACATA [XGTACX_site279]”: 9.35.

Consider “ATATATATTATAATAACACACATATATTATATTATA [CACACA_site406]”, for which the “gcPBM binding intensity (ln)” value came out at 9.37. The figure for TATATATATAAATGAATGCACTTTAGAAAAAAGTAC is 9.09; for “TAGATATATAGAATTACACACTTTTCTATAATATGA [CACACA_site6475]” it is 9.14; for “TAATATAAAATGATAAATGAATGTGATCATTTTATA [CACACA_negctrl_site1034]” it is 9.2.

In the case of “ACATACTCAAATAGCACACACATAAATAAAAATGTA [CACACA_site3864]”, the “gcPBM binding intensity (ln)” value was found to be 9.79. Next, “ATATATATTTAAAACGCATGCCTTGTTATATATATA [TGCATGCA_site624]”: 9.3; “CATATATATTTTATATGTACATATATATTTTATATA [XGTACX_site8665]”: 9.21.

On to “ATTACAAAAATATATAAACACACAAATATAATATAT [CACACA_site8962]”, for which the “gcPBM binding intensity (ln)” value is 9.76. The figure for “ATATAAATATTAATTACACACAAAAAAAAAAAAAAA [CACACA_site6671]” is 9.35; for “AATGGAAAAGGTAGTTGTACAACATGTTAAAATGGT [XGTACX_site1312]” it is 9.62; for “TTGAAGAATAAATATGCACACATGCATATATTTTTA [CACACA_site5840]” it is 9.07. The figure for “ATATAAATAAACAACTTTGTTGGCCTTCCAAAATAT [CACACA_negctrl_site1181]” is 9.23; for “AATAAAAAAAAACGCACACACAAATATATTCCATTC [CACACA_site1224]” it is 10.1. Next, “CTCAAAAAATTTCATAGTACTTTAAAATACTATAAT [XGTACX_site1939]”: 8.84; “TTTTGTTCTAATATGGGAACATAAATATTAAATATA [CACACA_negctrl_site1787]”: 8.8. Consider “TTGGTTATACAACACATGCACACGTAAATAAATATT [CACACA_site3841]”, for which the “gcPBM binding intensity (ln)” value amounted to 9.38.

With “AAGTATGCATTATATACACACATACATTTATATATT [CACACA_site4242]”, the “gcPBM binding intensity (ln)” value stood at 9.54. “ATTATGTTAAAAAGGCGTACATGTTATAAGGTCCTA [XGTACX_site344]”: the “gcPBM binding intensity (ln)” value was determined as 9.26. Turning to “TATATATAAAGAGAAACATGCAAAATGTGAATATTC [TGCATGCA_site377]”, the “gcPBM binding intensity (ln)” value was 9.59.

With “TCCTTATAAATATATATATAATATATATATATATAT [CACACA_negctrl_site293]”, the “gcPBM binding intensity (ln)” value turned out to be 9. Turning to “TATATATATATTTATACACACATTAGTGTAGACATG [CACACA_site8964]”, the “gcPBM binding intensity (ln)” value came to 9.46.

As for “TTGTTCTAATATATTGCACACGTAAAAATATAGGTA [CACACA_site8195]”, the “gcPBM binding intensity (ln)” value stood at 9.3. The figure for “ATCATAAAAGTATACACACATACATACATATGTACA [CACACA_site2641]” is 9.59. Next, “ATAAAGATTTTCCAAGCATGCCACATAGTGAGATAC [TGCATGCA_site594]”: 9.4.

Take “TTATATATTTTTACCATACACACATATAATAAATAT [CACACA_site3721]”: the “gcPBM binding intensity (ln)” value came out at 9.5.

On to “TAAATATATATATATGTACACACTCCAATACATATA [CACACA_site8858]”, for which the “gcPBM binding intensity (ln)” value came to 9.38. The figure for “TATATATATATTATATGTACATATTCCTATATATAC [XGTACX_site7071]” is 9.34; for “ACTTTATATTTTGAACGTACAAAAAAAAAATTATGT [XGTACX_site5588]” it is 9.04; for “AACCATTAATTCTCTACACACTTTTATTTTATTTAG [CACACA_site1769]” it is 9.68.

On to “GCACATATATACATACATACATACATACATATGTAT [TGCATGCA_negctrl_site95]”, for which the “gcPBM binding intensity (ln)” value is 9.29.

As to “ATAATATGTAATATTACACACAATTCATCATTTTTT [CACACA_site3159]”, the “gcPBM binding intensity (ln)” value turned out to be 9.51. The figure for “ATATACACCGTTGAATGTACATAAATAATATTAATA [XGTACX_site2893]” is 9.33; for “AAGTATTATTTTTATGCATGTGAAGTGCAAAATAAA [TGCATGCA_site198]” it is 8.83; for “AGTACATTTTTTTTAATAGGAAAAAAAATATTTATT [TGCATGCA_negctrl_site575]” it is 8.87. The figure for “ATATAATATATATGGTGTACATTTTTTAGTGCTATT [XGTACX_site1662]” is 9.52; for “TAAAAGAATAAAAGTAGTACTTTTTTTTATATTAGA [XGTACX_site368]” it is 8.84. Next, “AAAAAGTGACTCCTTACACACTTTACATAATTTAGT [CACACA_site4606]”: 9.46; “ATATTTTTATATTAGTGTACTTATTATAATGTATAG [XGTACX_site8185]”: 9.24; “TCTTTTTTTTTTTATTGTACAAGAAAAGGAAAAAAT [XGTACX_site3717]”: 8.78. “AACAAAAATGAAAAAACACACATAACATATATAAAT [CACACA_site740]”: the “gcPBM binding intensity (ln)” value is 9.97. For “AAAAAAAAAAAAAAAGTGCACTGAAAATATATTGAA [GTGCAC_site9395]”, the “gcPBM binding intensity (ln)” value turned out to be 9.28.

For “TTTTTAATTATTTATATAACGATAATCCTTACATAA [TGCATGCA_negctrl_site180]”, the “gcPBM binding intensity (ln)” value was 8.84. The figure for “ATAATATAAATAAAAACACACACAATCGTACATATA [CACACA_site9223]” is 10; for “ATATAATATATGTAAGTGCGCTTATAAATAAAACGA [GTGCAC_site9841]” it is 9.36. The figure for “ATATATTGATATATGTGTACATAGCTTATTTCATTT [XGTACX_site1800]” is 9.41; for “TATATAGAAAACAAGGCATGCAAATAACAAATTGTG [TGCATGCA_site473]” it is 9.77.

As to “TTTTAAAATTTTTTTTTTTTTTTTTTATGAACAAGT [GTGCAC_negctrl_site124]”, the “gcPBM binding intensity (ln)” value came out at 8.71. The figure for “TTTTAAAGAAAATATTTTATCATTATTTTTTGTACT [CACACA_negctrl_site1648]” is 9.1; for “AATATTTTAAATATTGCATGCAATGAAAAATGTAAA [TGCATGCA_site139]” it is 9.07. Next, “TCTTATTTTTTTATATATACAAAGTTTTATATATAT [GTGCAC_negctrl_site314]”: 9.31; “GTTCAATCGGGTGTTACTTCAAACAAGGAACAACAA [TGCATGCA_negctrl_site471]”: 9.14; “ATAGTAAATATAAAAAGTACTGATTCTTAAATTGTT [XGTACX_site5972]”: 9.32. Next, “TATTTTATTGTTGTTATACACACCATATAAAATATT [CACACA_site1630]”: 9.32; “ACTTGACACCAACACACACACATATATAAAAAAAAA [CACACA_site756]”: 9.87; “ATATATCACAATAAAATTTATAGAATTTTAAATAAG [TGCATGCA_negctrl_site437]”: 8.92.

Regarding “AAAATAAAATAAAATACACACATACATACATACAAA [CACACA_site5366]”, the “gcPBM binding intensity (ln)” value is 9.95. The figure for “CAATAAAGAGGGAATTGTACTTTAAATATCCCTCTT [XGTACX_site1991]” is 9.01; for “AATAGAACAAATAAAACACACACATATATATATATA [CACACA_site8893]” it is 9.71; for “AATATATTTCGAGATACACACATATATAAAAAAAAA [CACACA_site3398]” it is 9.57. Next, “AAAAAAAAAAAAAAGACACACAATGTGAAATAATAA [CACACA_site804]”: 9.45; “ATAAAAATTAAAAGGAGTACTTAAATATTAAGATGG [XGTACX_site4815]”: 9.18.

In the case of “TTTAAAAATATATATTGTACATATATATATCTATGA [XGTACX_site3556]”, the “gcPBM binding intensity (ln)” value was 9.

Regarding “TACTATTTAAAATTTGAACACACATTATTTATTTTA [CACACA_site9020]”, the “gcPBM binding intensity (ln)” value is 9.23. Next, “TTTATTTAAAAAATAAAAAAAAAAAAAAAAAAAAAA [CACACA_negctrl_site1670]”: 8.27.
